Some of the results follow. One pool of 16,384 single-stranded DNAs met each Rep nickase domain in vitro (1 h at 37 °C, 3 µM enzyme); the outer parts of the 90-letter strands are left off. Uncut reads are compared with the no-enzyme pool on a log2 scale; more negative means more cut, near 0 not cut, and no call is made. Shares of all reads are compared, so uncut sequences can rise above 0 when many others are cut.
Columns and labels:
Test in all cases: uncleaved DNA left, log2 of reads against the no-enzyme library (log2 ratio); higher = less cleavage (more negative = more Rep cleavage of the k-mer); sequences stand for … in CTCGTCCG…ACCGGAGA
[1] = test system: T1, Rep nickase domain of Muscovy duck circovirus
T1 sequence (residues 1-111, tag not shown): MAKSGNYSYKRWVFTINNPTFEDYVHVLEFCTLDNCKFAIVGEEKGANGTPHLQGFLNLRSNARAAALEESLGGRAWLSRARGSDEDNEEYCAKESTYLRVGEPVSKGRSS
Procedure: (§1)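 A pool of 90-nt single-stranded DNAs with seven random bases just before the constant AC of the nick site (name = the seven bases) was cut by 3 µM recombinant His6-SUMO-tagged Rep nickase domain (300 nM DNA, 50 mM HEPES pH 8.0, 50 mM NaCl, 1 mM MnCl2, 1 h, 37 °C, three replicates). Uncut DNA was amplified and sequenced.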

[2] = test system: T2, Rep nickase domain of banana bunchy top virus
T2 sequence (residues 1-94, tag not shown): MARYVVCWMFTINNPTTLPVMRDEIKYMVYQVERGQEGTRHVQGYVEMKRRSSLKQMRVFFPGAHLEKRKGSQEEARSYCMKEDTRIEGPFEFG
Procedure: as §1

[3] = test system: T3, Rep nickase domain of cabbage leaf curl virus
T3 sequence (residues 1-116, tag not shown): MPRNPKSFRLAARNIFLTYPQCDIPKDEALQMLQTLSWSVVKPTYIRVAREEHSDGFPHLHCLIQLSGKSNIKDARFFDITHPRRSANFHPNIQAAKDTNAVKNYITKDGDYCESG
Procedure: as §1

[4] = test system: T4, Rep nickase domain of chickpea chlorotic dwarf virus
T4 sequence (residues 1-124, tag not shown): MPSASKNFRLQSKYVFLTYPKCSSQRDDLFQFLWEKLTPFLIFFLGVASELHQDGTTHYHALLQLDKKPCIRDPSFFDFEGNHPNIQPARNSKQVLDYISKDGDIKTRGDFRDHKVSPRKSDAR
Procedure: as §1

[5] = test system: T5, Rep nickase domain of faba bean necrotic yellows virus
T5 sequence (residues 1-98, tag not shown): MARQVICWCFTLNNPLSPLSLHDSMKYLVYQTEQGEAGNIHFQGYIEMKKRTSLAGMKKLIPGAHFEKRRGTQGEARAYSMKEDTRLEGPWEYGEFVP
Procedure: as §1

[6] = test system: T6, Rep nickase domain of maize striate mosaic virus
T6 sequence (residues 1-117, tag not shown): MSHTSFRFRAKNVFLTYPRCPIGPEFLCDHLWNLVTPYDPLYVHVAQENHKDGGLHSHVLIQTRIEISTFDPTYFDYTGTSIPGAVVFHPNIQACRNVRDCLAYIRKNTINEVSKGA
Procedure: as §1

[7] = test system: T7, Rep nickase domain of porcine circovirus 2
T7 sequence (residues 2-116, tag not shown): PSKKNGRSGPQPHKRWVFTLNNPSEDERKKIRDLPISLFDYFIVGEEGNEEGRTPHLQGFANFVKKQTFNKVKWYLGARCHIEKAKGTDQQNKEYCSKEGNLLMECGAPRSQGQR
Procedure: as §1

[8] = test system: T8, Rep nickase domain of tomato golden mosaic virus
T8 sequence (residues 1-124, tag not shown): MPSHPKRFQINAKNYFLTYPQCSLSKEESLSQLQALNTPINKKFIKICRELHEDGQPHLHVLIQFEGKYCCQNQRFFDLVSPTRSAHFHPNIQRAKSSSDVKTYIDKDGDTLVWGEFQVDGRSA
Procedure: as §1

[9] = test system: T9, Rep nickase domain of tomato yellow leaf curl virus
T9 sequence (residues 1-136, tag not shown): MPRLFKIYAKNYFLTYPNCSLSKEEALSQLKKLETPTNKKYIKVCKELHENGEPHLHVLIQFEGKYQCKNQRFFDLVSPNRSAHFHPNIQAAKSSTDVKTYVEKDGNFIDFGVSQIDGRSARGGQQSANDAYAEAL
Procedure: as §1

[10] = test system: T10, Rep nickase domain of wheat dwarf virus
T10 sequence (residues 1-137, tag not shown): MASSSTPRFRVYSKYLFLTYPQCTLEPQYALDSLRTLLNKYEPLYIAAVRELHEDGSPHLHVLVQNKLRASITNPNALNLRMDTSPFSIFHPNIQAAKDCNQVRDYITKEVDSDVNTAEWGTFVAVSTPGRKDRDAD
Procedure: as §1

Row | Sequence | uncleaved DNA left (log2) [1] | uncleaved DNA left (log2) [2] | uncleaved DNA left (log2) [3] | uncleaved DNA left (log2) [4] | uncleaved DNA left (log2) [5] | uncleaved DNA left (log2) [6] | uncleaved DNA left (log2) [7] | uncleaved DNA left (log2) [8] | uncleaved DNA left (log2) [9] | uncleaved DNA left (log2) [10]
1 | CGAGGTG | -0.0436 | -0.13 | -0.258 | 0.0712 | -0.0504 | -0.0792 | 0.0134 | 0.00274 | 0.00417 | -0.125
2 | GTCCGAC | 0.0798 | 0.0745 | 0.302 | 0.829 | -0.00049 | 1.03 | 0.0853 | 0.012 | 0.0338 | 0.0631
3 | ACACACT | -0.0953 | -0.11 | -0.745 | -2.68 | 0.0521 | -0.995 | -0.257 | 0.0204 | -0.144 | -0.424
4 | ATTGCGT | 0.0452 | -0.0299 | -0.0356 | 1.05 | 0.0238 | 0.989 | 0.0863 | -0.151 | 0.13 | -0.0554
5 | ACCAAGC | -0.0416 | -0.0211 | -0.256 | 0.0642 | -0.0116 | -0.903 | 0.102 | -0.0144 | -0.0767 | -0.119
6 | TCCCCAA | -0.127 | -0.0365 | 0.044 | -0.247 | -0.0596 | -0.451 | -0.187 | -0.104 | -0.0934 | -0.0444
7 | GCGTGCC | 0.0127 | -0.0923 | 0.115 | 0.373 | -0.0403 | 0.043 | 0.0639 | 0.0147 | -0.0276 | -0.0252
8 | GACTAGT | -1.78 | -1.17 | 0.175 | 0.14 | 0.0186 | 0.546 | -2.73 | 0.204 | 0.0194 | 0.1
9 | AATTCTA | -1.72 | -0.573 | -0.192 | -2.7 | -0.0461 | -0.916 | -2.22 | -0.158 | -0.12 | -0.235
10 | TTGTTCA | 0.0125 | 0.0835 | 0.264 | -0.351 | 0.0824 | 0.173 | -0.117 | -0.00146 | 0.126 | 0.107
11 | CTCGTCT | 0.0196 | -0.0306 | -0.0734 | -1.75 | 0.0795 | -0.552 | -0.326 | 0.148 | -0.0567 | -0.0577
12 | GAAGGAA | -0.0487 | -0.0129 | 0.378 | 1.29 | -0.0692 | 1.62 | 0.0556 | -0.00559 | -0.0738 | -0.00282
13 | CGCCCCT | -0.197 | -0.215 | -0.176 | -1.36 | -0.22 | -0.137 | -0.579 | -0.209 | -0.109 | -0.186
14 | GAGTGCG | -0.0427 | -0.0266 | -0.528 | 0.708 | -0.0195 | -0.0208 | 0.104 | -0.0921 | -0.0363 | -0.12
